# Assay results published in PubChem BioAssay AID2147 (National Center for Advancing Translational Sciences (NCATS), 2009).
# The campaign covered roughly 230,000 compounds. About 3,600 (1.6%) were called active. The inconclusive results got no clear call from the source; some entries with a clear call stand among them for comparison. The call rests on the fitted dose curve; in most records, active means well fitted inhibition curve with a large enough effect (not every such curve was filed as active); inconclusive means small, poorly fitted or top-dose-only effect, or another doubt; inactive means no such curve, though single readings can be large or run the other way. A potency beside an inconclusive call is a rough fit, not a confirmed value.
# Target: Lysine-specific demethylase 4E (Homo sapiens) (UniProt B2RXH2)
# Assay: qHTS Assay for Inhibitors of Human Jumonji Domain Containing 2E (JMJD2E)
# Conditions: JMJD2E catalytic domain, FDH-coupled NADH fluorescence (FDH is formaldehyde dehydrogenase); series mostly up to 57.1 µM; activity change, negative = inhibition: at the top concentration
# Further: nearly all actives have a fitted effect of over 50% in size.
# Potency means the concentration at half of the fitted maximal effect; tags describe the fitted curve by direction and shape.
# 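Wherever activity change, negative = inhibition is given: 0% = wells with enzyme and -100% = buffer wells without enzyme.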
# Sequence of UniProt B2RXH2 (B2RXH2 whole entry, looked up, the tested form may be a part): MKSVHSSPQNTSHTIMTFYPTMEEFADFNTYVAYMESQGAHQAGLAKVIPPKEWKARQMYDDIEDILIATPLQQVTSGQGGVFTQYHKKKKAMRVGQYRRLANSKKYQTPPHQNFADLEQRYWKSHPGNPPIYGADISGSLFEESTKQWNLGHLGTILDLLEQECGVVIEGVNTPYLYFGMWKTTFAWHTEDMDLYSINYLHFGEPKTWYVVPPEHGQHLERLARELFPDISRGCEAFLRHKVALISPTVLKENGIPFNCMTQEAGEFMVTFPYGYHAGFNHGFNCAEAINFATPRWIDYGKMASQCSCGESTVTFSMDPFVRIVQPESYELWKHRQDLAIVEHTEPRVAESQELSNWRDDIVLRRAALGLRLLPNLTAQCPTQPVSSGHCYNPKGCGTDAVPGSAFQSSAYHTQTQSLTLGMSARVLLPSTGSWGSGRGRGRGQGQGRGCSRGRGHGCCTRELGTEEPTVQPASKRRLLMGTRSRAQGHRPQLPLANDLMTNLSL
Structure (SMILES),"activity change, negative = inhibition",Potency
C(=N\Nc1nc2ccccc2[nH]1)/c1cccs1,inactive: 15.3%,
Cc1nn(C)c(C)c1CN(Cc1nc(CCC(C)C)no1)C(C)C,inactive: -18.9%,
O=C(c1ccc(F)cc1)C1CCN(Cc2cn[nH]c2-c2ccc(F)cc2)CC1,inactive: 8.37%,
CCOc1ccc(CNc2ccc(CNc3ncn[nH]3)cc2)cc1,inactive: -3.27%,
COc1ccc(OC)c(NC(=O)Nc2cc(C(=O)O)ccc2C)c1,inactive: 7.31%,
CCOC(=O)C1=C(C)Nc2nnnn2C1c1ccccc1Cl (stereo not drawn),inactive: -19.6%,
C=CCn1c(SCC(=O)Nc2ccccc2C)nnc1-c1ccncc1,inactive: 1.28%,
CCN(CC)S(=O)(=O)c1ccc(N2CCCC2)c(C(=O)OCC(=O)Nc2cc(C)on2)c1,inactive: 0.479%,
O=C(CCCSc1nc2sc3c(c2c(=O)[nH]1)CCC3)NCCO,inactive: -4.99%,
Cc1ccc2[nH]c(=O)c(CN(Cc3ccco3)S(=O)(=O)c3c(C)ccc4nsnc34)cc2c1,,"inconclusive: 39.8 µM [inhibitor, single point]"
CCS(=O)(=O)Nc1cc(C(=O)OC)ccc1C(=O)OC,,"inconclusive: 35.5 µM [inhibitor, single point]"
CC1=CC(C)(C)Nc2ccc(OC(=O)CN3C(=O)c4ccccc4C3=O)cc21,inactive: -0.487%,
CSc1ccc(-c2nc(CN3CCCCC3c3cccnc3)c(C)o2)cc1 (stereo not drawn),,"inconclusive: 39.8 µM [inhibitor, single point]"
Cc1cc(C)c(S(C)(=O)=O)c(Oc2ccc(C(C)(C)C)cc2)n1,inactive: 0.0262%,
O=C(COC(=O)c1n[nH]c2ccccc12)NC(=O)NCc1ccco1,,"inconclusive: 35.5 µM [inhibitor, single point]"
C=CCN1C(=O)CSc2ccc(C(=O)NCCC3=CCCCC3)cc21,inactive: -0.168%,
Nc1nccc(/C=C/c2ccc(Cl)cc2)n1,,"inconclusive: 14.1 µM [inhibitor, partial curve]"
O=C(Nc1ccc2c(c1)C(=O)N(CC1CCCO1)C2=O)c1ccc(Cl)c(Cl)c1 (stereo not drawn),,"inconclusive: 3.55 µM [inhibitor, partial curve, poor fit]"
O=C(Cc1ccccc1)Nc1ccccc1C(=O)O,,"inconclusive: 35.5 µM [inhibitor, single point]"
Cc1ccc(-n2cc(CN3CCC(O)(c4ccccn4)CC3)c(-c3ccc(F)cc3)n2)cc1,,"inconclusive: 39.8 µM [inhibitor, single point]"
O=C(CSc1ncn[nH]1)Nc1nnc(-c2ccccc2)s1,inactive: -8.72%,
Cc1cccc(OCC(=O)Nc2nnc(-c3ccco3)s2)c1,,"inconclusive: 35.5 µM [inhibitor, single point]"
COc1ccc2c(c1)CCc1cc(C(=O)N3CCN(c4ccc(N5CCOCC5)nn4)CC3)sc1-2,,"inconclusive: 25.1 µM [inhibitor, partial curve]"
